Test results taken from the supplement of paper PMC9927326.
MIC of clinical C. albicans isolates, CLSI broth microdilution (ranges and time not stated); higher = less susceptible. Call: susceptible or wild type [S] / resistant or non-wild type [R] by CLSI breakpoints or epidemiological cut-offs; intermediate and dose-dependent carry no call here (the paper groups them with resistant). '<=' and '>=' mark each drug's lowest and highest value, inferred; the source prints them plain. Isolates are numbered anew.

Experiments:
Assay in all cases: CLSI broth microdilution.
voriconazole = compound: C[C@@H](c1ncncc1F)[C@](O)(Cn1cncn1)c1ccc(F)cc1F [voriconazole]
posaconazole = compound: CC[C@@H]([C@H](C)O)n1ncn(-c2ccc(N3CCN(c4ccc(OC[C@@H]5CO[C@@](Cn6cncn6)(c6ccc(F)cc6F)C5)cc4)CC3)cc2)c1=O [posaconazole]
anidulafungin = compound: CCCCCOc1ccc(-c2ccc(-c3ccc(C(=O)N[C@H]4C[C@@H](O)[C@@H](O)NC(=O)[C@@H]5[C@@H](O)[C@@H](C)CN5C(=O)[C@H]([C@@H](C)O)NC(=O)[C@H]([C@H](O)[C@@H](O)c5ccc(O)cc5)NC(=O)[C@@H]5C[C@@H](O)CN5C(=O)[C@H]([C@@H](C)O)NC4=O)cc3)cc2)cc1 [anidulafungin]
amphotericin B = compound: C[C@@H]1[C@H](O)[C@@H](C)/C=C/C=C/C=C/C=C/C=C/C=C/C=C/[C@H](O[C@@H]2O[C@H](C)[C@@H](O)[C@H](N)[C@@H]2O)C[C@@H]2O[C@](O)(C[C@@H](O)C[C@@H](O)[C@H](O)CC[C@@H](O)C[C@@H](O)CC(=O)O[C@H]1C)C[C@H](O)[C@H]2C(=O)O [amphotericin B]
flucytosine = compound: Nc1[nH]c(=O)ncc1F [flucytosine]
caspofungin = compound: CC[C@H](C)C[C@H](C)CCCCCCCCC(=O)N[C@H]1C[C@@H](O)[C@@H](NCCN)NC(=O)[C@@H]2[C@@H](O)CCN2C(=O)[C@H]([C@H](O)CCN)NC(=O)[C@H]([C@H](O)[C@@H](O)c2ccc(O)cc2)NC(=O)[C@@H]2C[C@@H](O)CN2C(=O)[C@H]([C@@H](C)O)NC1=O [caspofungin]
fluconazole = compound: OC(Cn1cncn1)(Cn1cncn1)c1ccc(F)cc1F [fluconazole]
micafungin = compound: CCCCCOc1ccc(-c2cc(-c3ccc(C(=O)N[C@H]4C[C@@H](O)[C@@H](O)NC(=O)[C@@H]5[C@@H](O)[C@@H](C)CN5C(=O)[C@H]([C@H](O)CC(N)=O)NC(=O)[C@H]([C@H](O)[C@@H](O)c5ccc(O)c(OS(=O)(=O)O)c5)NC(=O)[C@@H]5C[C@@H](O)CN5C(=O)[C@H]([C@@H](C)O)NC4=O)cc3)no2)cc1 [micafungin]
itraconazole = compound: CCC(C)n1ncn(-c2ccc(N3CCN(c4ccc(OCC5COC(Cn6cncn6)(c6ccc(Cl)cc6Cl)O5)cc4)CC3)cc2)c1=O [itraconazole]

Test System | MIC (voriconazole) | MIC (posaconazole) | MIC (anidulafungin) | MIC (amphotericin B) | MIC (flucytosine) | MIC (caspofungin) | MIC (fluconazole) | MIC (micafungin) | MIC (itraconazole)
Candida albicans isolate 70 (Erg11p: F145L,A114V, Fur1p: R101C, Tac1p: H263Y) | 0.25 mg/L | 0.5 mg/L [R] | ≤ 0.015 mg/L [S] | 0.5 mg/L [S] | 0.12 mg/L [S] | 0.06 mg/L [S] | 16 mg/L [R] | 0.015 mg/L [S] | 0.5 mg/L [R]
Candida albicans isolate 359 (Erg11p: WT, Fur1p: WT, Tac1p: I558V,A377V,F189S,N174D,M170I,K87N) | ≤ 0.008 mg/L [S] | 0.015 mg/L [S] | 0.03 mg/L [S] | 0.5 mg/L [S] | ≤ 0.06 mg/L [S] | 0.06 mg/L [S] | 0.25 mg/L [S] | 0.015 mg/L [S] | 0.03 mg/L [S]
Candida albicans isolate 109 (Erg11p: Y132H,T123I, Fur1p: R101C, Tac1p: WT) | 0.5 mg/L | 0.03 mg/L [S] | ≤ 0.015 mg/L [S] | 0.5 mg/L [S] | 0.5 mg/L [S] | 0.015 mg/L [S] | 4 mg/L | 0.015 mg/L [S] | 0.12 mg/L [S]
Candida albicans isolate 208 (Erg11p: V488I,E266D, Fur1p: WT, Tac1p: N896S) | ≤ 0.008 mg/L [S] | 0.015 mg/L [S] | ≤ 0.015 mg/L [S] | 0.25 mg/L [S] | ≤ 0.06 mg/L [S] | 0.015 mg/L [S] | 0.25 mg/L [S] | ≤ 0.008 mg/L [S] | ≤ 0.015 mg/L [S]
Candida albicans isolate 164 (Erg11p: E266D, Fur1p: WT, Tac1p: N896S,I558V) | 0.015 mg/L [S] | 0.015 mg/L [S] | 0.06 mg/L [S] | 0.25 mg/L [S] | ≤ 0.06 mg/L [S] | 0.06 mg/L [S] | 0.25 mg/L [S] | 0.015 mg/L [S] | 0.03 mg/L [S]
Candida albicans isolate 346 (Erg11p: V488I,E266D, Fur1p: WT, Tac1p: N896S,A377V,F189S,N174D,M170I,K87N) | ≤ 0.008 mg/L [S] | 0.015 mg/L [S] | 0.06 mg/L [S] | 0.5 mg/L [S] | ≤ 0.06 mg/L [S] | 0.03 mg/L [S] | 0.25 mg/L [S] | 0.015 mg/L [S] | 0.03 mg/L [S]
Candida albicans isolate 125 (Erg11p: E266D, Fur1p: WT, Tac1p: I558V,A377V,F189S,N174D,M170I,K87N) | ≤ 0.008 mg/L [S] | 0.03 mg/L [S] | ≤ 0.015 mg/L [S] | 0.5 mg/L [S] | ≤ 0.06 mg/L [S] | 0.03 mg/L [S] | 0.5 mg/L [S] | 0.03 mg/L [S] | 0.06 mg/L [S]
Candida albicans isolate 343 (Erg11p: D153E, Fur1p: WT, Tac1p: N896S) | ≤ 0.008 mg/L [S] | 0.03 mg/L [S] | 0.06 mg/L [S] | 0.25 mg/L [S] | 0.12 mg/L [S] | 0.03 mg/L [S] | 0.25 mg/L [S] | 0.015 mg/L [S] | 0.06 mg/L [S]
Candida albicans isolate 237 (Erg11p: K342R, Fur1p: WT, Tac1p: I558V,A377V,F189S,N174D,M170I,K87N) | ≤ 0.008 mg/L [S] | 0.015 mg/L [S] | 0.03 mg/L [S] | 0.25 mg/L [S] | ≤ 0.06 mg/L [S] | 0.03 mg/L [S] | 0.5 mg/L [S] | 0.015 mg/L [S] | 0.03 mg/L [S]
Candida albicans isolate 178 (Erg11p: V488I,E266D, Fur1p: WT, Tac1p: N896S,I895T) | ≤ 0.008 mg/L [S] | 0.03 mg/L [S] | ≤ 0.015 mg/L [S] | 0.5 mg/L [S] | 0.12 mg/L [S] | 0.03 mg/L [S] | 0.25 mg/L [S] | 0.015 mg/L [S] | 0.03 mg/L [S]
Candida albicans isolate 129 (Erg11p: V437I,D153E, Fur1p: WT, Tac1p: N896S,L695F,I558V,E192V,F189S,L131I) | ≤ 0.008 mg/L [S] | 0.015 mg/L [S] | 0.12 mg/L [S] | 0.5 mg/L [S] | ≤ 0.06 mg/L [S] | 0.06 mg/L [S] | 0.25 mg/L [S] | 0.015 mg/L [S] | 0.03 mg/L [S]
Candida albicans isolate 73 (Erg11p: V488I,E266D, Fur1p: WT, Tac1p: N896S,M170V,S108N) | ≤ 0.008 mg/L [S] | ≤ 0.008 mg/L [S] | 0.03 mg/L [S] | 0.5 mg/L [S] | ≤ 0.06 mg/L [S] | 0.015 mg/L [S] | 0.5 mg/L [S] | 0.015 mg/L [S] | ≤ 0.015 mg/L [S]
Candida albicans isolate 283 (Erg11p: WT, Fur1p: WT, Tac1p: N896S) | 1 mg/L [R] | 0.06 mg/L [S] | 1 mg/L [R] | 2 mg/L [S] | ≤ 0.06 mg/L [S] | 0.5 mg/L | 32 mg/L [R] | 1 mg/L [R] | 0.12 mg/L [S]
Candida albicans isolate 329 (Erg11p: K342R,E266D, Fur1p: WT, Tac1p: N896S,I895T,I558V,A377V,F189S,N174D,M170I,K87N) | ≤ 0.008 mg/L [S] | 0.015 mg/L [S] | ≤ 0.015 mg/L [S] | 0.5 mg/L [S] | ≤ 0.06 mg/L [S] | 0.03 mg/L [S] | 0.25 mg/L [S] | 0.015 mg/L [S] | ≤ 0.015 mg/L [S]
Candida albicans isolate 15 (Erg11p: WT, Fur1p: WT, Tac1p: N896S) | ≤ 0.008 mg/L [S] | 0.03 mg/L [S] | 0.12 mg/L [S] | 0.5 mg/L [S] | 0.12 mg/L [S] | 0.06 mg/L [S] | 0.5 mg/L [S] | 0.015 mg/L [S] | 0.12 mg/L [S]
Candida albicans isolate 221 (Erg11p: D153E, Fur1p: WT, Tac1p: N896S) | ≤ 0.008 mg/L [S] | 0.015 mg/L [S] | 0.03 mg/L [S] | 0.25 mg/L [S] | ≤ 0.06 mg/L [S] | 0.015 mg/L [S] | 0.5 mg/L [S] | ≤ 0.008 mg/L [S] | 0.03 mg/L [S]
